PubChem BioAssay AID485281 (National Center for Advancing Translational Sciences (NCATS), 2010)
The campaign covered roughly 350,000 compounds. About 260 (0.074%) were called active. The inconclusive results got no clear call from the source; some entries with a clear call stand among them for comparison. The call rests on the fitted dose curve; in most records, active means well fitted inhibition curve with a large enough effect; inconclusive means small, poorly fitted or top-dose-only effect; inactive means no such curve, though single readings can be large or run the other way. A potency beside an inconclusive call is a rough fit, not a confirmed value.

target: Ferritin light chain (Equus caballus) (UniProt P02791); test: qHTS Assay for Identification of Novel General Anesthetics; details: apoferritin/1-aminoanthracene competitive binding, fluorescence; activity change, negative = displacement: at 77.5 µM (top of the series); further: nearly all actives have a fitted effect of over 20% in size
How it was run: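 In PBS, apoferritin at 10 uM is loaded with 1-AMA from a 50% saturated solution. After 10 min of compound exposure at ambient temperature, reduced 535 nm fluorescence indicates probe displacement.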
On the % scale 0 is the no-effect control and ±100 the full control effect; potency means the concentration at half of the fitted maximal effect; tags describe the fitted curve by direction and shape.

Chain of UniProt P02791 (P02791 whole entry, looked up): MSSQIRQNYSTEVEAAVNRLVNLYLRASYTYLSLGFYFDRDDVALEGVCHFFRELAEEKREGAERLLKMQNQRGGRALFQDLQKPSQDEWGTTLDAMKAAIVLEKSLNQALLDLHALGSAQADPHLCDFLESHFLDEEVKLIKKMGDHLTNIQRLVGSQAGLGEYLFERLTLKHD

Compound | Potency | activity change, negative = displacement
COc1cc(CNC(=O)c2sc3ncccc3c2-n2cccc2)cc(OC)c1OC | inconclusive: 20 µM [inhibitor, single point] | –
Cc1cc(C(=O)CSc2nnc(N)s2)c(C)n1CCc1ccc(Cl)cc1 | inconclusive: 28.2 µM [inhibitor, partial curve] | –
COC(=O)Nc1nc(-c2ccccc2)c(C(=O)c2ccccc2)s1 | inconclusive: 25.1 µM [inhibitor, single point] | –
CCn1c(SCC(=O)c2ccc(Cl)cc2)nnc1-c1cccs1 | inconclusive: 25.1 µM [inhibitor, partial curve, poor fit] | –
CN(C)c1ccc(-c2nc3n(n2)C(c2cccnc2)C2=C(CC(C)(C)CC2=O)N3)cc1 (configuration not stated) | inconclusive: 35.5 µM [inhibitor, single point] | –
Cc1ccccc1CN1CCN(CC(=O)NCCCN2CCN(c3ccc(F)cc3)CC2)C1=O | – | inactive: -9.43%
Cc1cccc2c1OCC/C2=N\NC(=O)COc1ccccc1 | inconclusive: 15.8 µM [inhibitor, partial curve] | –
CCc1nn(CC(=O)NCC(C)c2ccccc2)c(=O)c2cc3occc3n12 (configuration not stated) | inconclusive: 10 µM [inhibitor, partial curve] | –
Cc1cccc(Nc2nc(-c3ccc(O)cc3O)cs2)n1 | inconclusive: 50.1 µM [inhibitor, single point] | –
Cc1cc(C)n2nc(-c3sccc3-n3cccc3)cc2n1 | inconclusive: 25.1 µM [inhibitor, partial curve] | –
Cc1ccnc(N2C(=O)C3C4CC(C(Br)C4Br)C3C2=O)c1 (configuration not stated) | inconclusive: 22.4 µM [inhibitor, partial curve] | –
Cc1cc(C)cc(Cn2ncc(Cl)c(Cl)c2=O)c1 | inconclusive: 31.6 µM [inhibitor, single point] | –
CN(Cc1ccccc1)C(=O)C1CCN(S(=O)(=O)c2ccc3c(c2)oc(=O)n3C)CC1 | inconclusive: 28.2 µM [inhibitor, single point] | –
COc1ccc(-c2cc(-c3ccccc3O)[nH]n2)cc1OC | inconclusive: 50.1 µM [inhibitor, single point] | –
CCN(c1ccc(NC(=O)COC(=O)c2cccs2)cc1)C(C)C | inconclusive: 28.2 µM [inhibitor, partial curve] | –
CO[C@H]1COC(=O)CCC[C@H](C)[C@@H](OC)COC(=O)C/C=C\[C@@H]1C | – | inactive: -7% [at 15.3 µM]
Cn1ncc2c1ncn1nc(COc3ccc4ccccc4c3)nc21 | inconclusive: 0.794 µM [inhibitor, partial curve, poor fit] | –
